# According to the supplement of paper PMC8728848:
# Some of the results follow.
# B1: HPA (Helix pomatia), Q575S3 (protein)
# chain: MWAHLTGLLLICALSLSAAQRAQTGEIDCGSDSSWPKDPSDNPNRDNTREIVKHVTFSPQFCREPKVILSVTTLDAEHTKNLRYEARLKSVSPSGLSASCYSWHDGTIYRMKLSWLAVED
# Key:
# Experiment in all cases: glycan array binding signal (z-score within array); higher = stronger binding
# Settings in all cases: glycan notation: IUPAC condensed, linker removed
# Gal(b1-4)GlcNAc6P = target: Gal(b1-4)GlcNAc6P
# Outline: (§1)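 Glycan array data were curated from 3228 arrays in the Consortium for Functional Glycomics database and kept only where the protein sequence was available. Glycan names were converted to IUPAC-condensed notation, and columns mapping to the same glycan were averaged. The binding signal is a within-array Z-score, averaged across arrays of the same protein sequence at different concentrations or buffers and across linkers. Negative Z-scores can be read as non-binding.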
# Gal(b1-6)Gal = target: Gal(b1-6)Gal
# Outline: as §1
# Gal3S(b1-3)GalNAc = target: Gal3S(b1-3)GalNAc
# Outline: as §1
# Gal3S(b1-3)GlcNAc = target: Gal3S(b1-3)GlcNAc
# Outline: as §1
# [1] = target: Gal3S(b1-3)[Fuc(a1-4)]GlcNAc
# Outline: as §1
# Gal3S(b1-4)Glc = target: Gal3S(b1-4)Glc
# Outline: as §1
# Gal3S(b1-4)Glc6S = target: Gal3S(b1-4)Glc6S
# Outline: as §1
# Gal3S(b1-4)GlcNAc = target: Gal3S(b1-4)GlcNAc
# Outline: as §1
# Gal3S(b1-4)GlcNAc6S = target: Gal3S(b1-4)GlcNAc6S
# Outline: as §1
# [2] = target: Gal3S(b1-4)[Fuc(a1-3)]Glc
# Outline: as §1
# [3] = target: Gal3S(b1-4)[Fuc(a1-3)]Glc6S
# Outline: as §1
# [4] = target: Gal3S(b1-4)[Fuc(a1-3)]GlcNAc
# Outline: as §1
# [5] = target: Gal3S(b1-4)[Fuc(a1-3)]GlcNAc6S
# Outline: as §1
# Gal3S4S(b1-4)GlcNAc = target: Gal3S4S(b1-4)GlcNAc
# Outline: as §1
# Gal3S6S(b1-4)GlcNAc = target: Gal3S6S(b1-4)GlcNAc
# Outline: as §1
# Gal3S6S(b1-4)GlcNAc6S = target: Gal3S6S(b1-4)GlcNAc6S
# Outline: as §1
# Gal4S(b1-4)GlcNAc = target: Gal4S(b1-4)GlcNAc
# Outline: as §1
# Gal4S6S(b1-4)GlcNAc = target: Gal4S6S(b1-4)GlcNAc
# Outline: as §1
# Gal6P(b1-4)GlcNAc = target: Gal6P(b1-4)GlcNAc
# Outline: as §1
# Gal6S(b1-3)GlcNAc = target: Gal6S(b1-3)GlcNAc
# Outline: as §1
# Gal6S(b1-3)GlcNAc6S = target: Gal6S(b1-3)GlcNAc6S
# Outline: as §1
# Gal6S(b1-4)Glc = target: Gal6S(b1-4)Glc
# Outline: as §1
# Gal6S(b1-4)Glc6S = target: Gal6S(b1-4)Glc6S
# Outline: as §1
# Gal6S(b1-4)GlcNAc = target: Gal6S(b1-4)GlcNAc
# Outline: as §1
# Gal6S(b1-4)GlcNAc6S = target: Gal6S(b1-4)GlcNAc6S
# Outline: as §1
# GalNAc(a1-3)Gal = target: GalNAc(a1-3)Gal
# Outline: as §1
# GalNAc(a1-3)GalNAc = target: GalNAc(a1-3)GalNAc
# Outline: as §1
# [6] = target: GalNAc(a1-3)GalNAc(a1-3)Gal(a1-4)Gal(b1-4)GlcNAc
# Outline: as §1
# [7] = target: GalNAc(a1-3)GalNAc(b1-3)Gal(a1-4)Gal(b1-4)Glc
# Outline: as §1
# [8] = target: GalNAc(a1-3)GalNAc(b1-3)Gal(a1-4)Gal(b1-4)GlcNAc
# Outline: as §1
# GalNAc(b1-3)Gal = target: GalNAc(b1-3)Gal
# Outline: as §1
# [9] = target: GalNAc(b1-3)Gal(a1-4)Gal(b1-4)GlcNAc
# Outline: as §1
# [10] = target: GalNAc(b1-3)Gal(a1-4)Gal(b1-4)GlcNAc(b1-3)Gal(b1-4)Glc
# Outline: as §1
# [11] = target: GalNAc(b1-3)Gal(a1-6)Gal(b1-4)Glc
# Outline: as §1
# GalNAc(b1-3)GalNAc = target: GalNAc(b1-3)GalNAc
# Outline: as §1
# GalNAc(b1-3)GlcNAc = target: GalNAc(b1-3)GlcNAc
# Outline: as §1
# GalNAc(b1-4)Gal(b1-4)Glc = target: GalNAc(b1-4)Gal(b1-4)Glc
# Outline: as §1
# GalNAc(b1-4)GlcNAc = target: GalNAc(b1-4)GlcNAc
# Outline: as §1
# [12] = target: GalNAc(b1-4)GlcNAc(b1-2)Man
# Outline: as §1
# [13] = target: GalNAc(b1-4)GlcNAc(b1-2)Man(a1-3)[GalNAc(b1-4)GlcNAc(b1-2)Man(a1-6)]Man(b1-4)GlcNAc(b1-4)GlcNAc
# Outline: as §1
# [14] = target: GalNAc(b1-4)GlcNAc(b1-3)GalNAc(b1-4)GlcNAc
# Outline: as §1
# GalNAc(b1-4)GlcNAc6S = target: GalNAc(b1-4)GlcNAc6S
# Outline: as §1
# GalNAc(b1-6)GalNAc = target: GalNAc(b1-6)GalNAc
# Outline: as §1
# GalNAc3S(b1-4)GlcNAc = target: GalNAc3S(b1-4)GlcNAc
# Outline: as §1
# GalNAc3S(b1-4)GlcNAc3S = target: GalNAc3S(b1-4)GlcNAc3S
# Outline: as §1
binder,measurement,setting,value
B1,glycan array binding signal (z-score),Gal(b1-4)GlcNAc6P,-0.258
same,glycan array binding signal (z-score),Gal(b1-6)Gal,-0.241
same,glycan array binding signal (z-score),Gal3S(b1-3)GalNAc,0.169
same,glycan array binding signal (z-score),Gal3S(b1-3)GlcNAc,-0.253
same,glycan array binding signal (z-score),[1],-0.26
same,glycan array binding signal (z-score),Gal3S(b1-4)Glc,-0.259
same,glycan array binding signal (z-score),Gal3S(b1-4)Glc6S,-0.257
same,glycan array binding signal (z-score),Gal3S(b1-4)GlcNAc,-0.254
same,glycan array binding signal (z-score),Gal3S(b1-4)GlcNAc6S,-0.265
same,glycan array binding signal (z-score),[2],-0.2
same,glycan array binding signal (z-score),[3],-0.229
same,glycan array binding signal (z-score),[4],-0.251
same,glycan array binding signal (z-score),[5],-0.252
same,glycan array binding signal (z-score),Gal3S4S(b1-4)GlcNAc,-0.266
same,glycan array binding signal (z-score),Gal3S6S(b1-4)GlcNAc,-0.266
same,glycan array binding signal (z-score),Gal3S6S(b1-4)GlcNAc6S,-0.255
same,glycan array binding signal (z-score),Gal4S(b1-4)GlcNAc,-0.267
same,glycan array binding signal (z-score),Gal4S6S(b1-4)GlcNAc,-0.268
same,glycan array binding signal (z-score),Gal6P(b1-4)GlcNAc,-0.251
same,glycan array binding signal (z-score),Gal6S(b1-3)GlcNAc,-0.249
same,glycan array binding signal (z-score),Gal6S(b1-3)GlcNAc6S,-0.242
same,glycan array binding signal (z-score),Gal6S(b1-4)Glc,-0.265
same,glycan array binding signal (z-score),Gal6S(b1-4)Glc6S,-0.259
same,glycan array binding signal (z-score),Gal6S(b1-4)GlcNAc,-0.26
same,glycan array binding signal (z-score),Gal6S(b1-4)GlcNAc6S,-0.188
same,glycan array binding signal (z-score),GalNAc(a1-3)Gal,4.18
same,glycan array binding signal (z-score),GalNAc(a1-3)GalNAc,4.53
same,glycan array binding signal (z-score),[6],5.04
same,glycan array binding signal (z-score),[7],3.7
same,glycan array binding signal (z-score),[8],5.7
same,glycan array binding signal (z-score),GalNAc(b1-3)Gal,-0.228
same,glycan array binding signal (z-score),[9],-0.249
same,glycan array binding signal (z-score),[10],-0.258
same,glycan array binding signal (z-score),[11],-0.248
same,glycan array binding signal (z-score),GalNAc(b1-3)GalNAc,-0.27
same,glycan array binding signal (z-score),GalNAc(b1-3)GlcNAc,-0.266
same,glycan array binding signal (z-score),GalNAc(b1-4)Gal(b1-4)Glc,-0.239
same,glycan array binding signal (z-score),GalNAc(b1-4)GlcNAc,-0.262
same,glycan array binding signal (z-score),[12],-0.256
same,glycan array binding signal (z-score),[13],-0.2
same,glycan array binding signal (z-score),[14],-0.26
same,glycan array binding signal (z-score),GalNAc(b1-4)GlcNAc6S,-0.261
same,glycan array binding signal (z-score),GalNAc(b1-6)GalNAc,-0.253
same,glycan array binding signal (z-score),GalNAc3S(b1-4)GlcNAc,-0.254
same,glycan array binding signal (z-score),GalNAc3S(b1-4)GlcNAc3S,-0.263
